Measurements: paper PMC4336329 (PLoS ONE, 2015)
Screen size: about 310,000 compounds; about 2,200 (0.71%) showed an effect of 50% or more. The effect is printed as a negative number. This is one part of the list.

Molecular target: human ether-à-go-go-related gene (hERG) potassium channel (human, UniProt Q12809)
Experiment: primary screen, population patch clamp on CHO cells stably expressing hERG

Sequence of human ether-à-go-go-related gene (hERG) potassium channel (Q12809 whole entry, looked up): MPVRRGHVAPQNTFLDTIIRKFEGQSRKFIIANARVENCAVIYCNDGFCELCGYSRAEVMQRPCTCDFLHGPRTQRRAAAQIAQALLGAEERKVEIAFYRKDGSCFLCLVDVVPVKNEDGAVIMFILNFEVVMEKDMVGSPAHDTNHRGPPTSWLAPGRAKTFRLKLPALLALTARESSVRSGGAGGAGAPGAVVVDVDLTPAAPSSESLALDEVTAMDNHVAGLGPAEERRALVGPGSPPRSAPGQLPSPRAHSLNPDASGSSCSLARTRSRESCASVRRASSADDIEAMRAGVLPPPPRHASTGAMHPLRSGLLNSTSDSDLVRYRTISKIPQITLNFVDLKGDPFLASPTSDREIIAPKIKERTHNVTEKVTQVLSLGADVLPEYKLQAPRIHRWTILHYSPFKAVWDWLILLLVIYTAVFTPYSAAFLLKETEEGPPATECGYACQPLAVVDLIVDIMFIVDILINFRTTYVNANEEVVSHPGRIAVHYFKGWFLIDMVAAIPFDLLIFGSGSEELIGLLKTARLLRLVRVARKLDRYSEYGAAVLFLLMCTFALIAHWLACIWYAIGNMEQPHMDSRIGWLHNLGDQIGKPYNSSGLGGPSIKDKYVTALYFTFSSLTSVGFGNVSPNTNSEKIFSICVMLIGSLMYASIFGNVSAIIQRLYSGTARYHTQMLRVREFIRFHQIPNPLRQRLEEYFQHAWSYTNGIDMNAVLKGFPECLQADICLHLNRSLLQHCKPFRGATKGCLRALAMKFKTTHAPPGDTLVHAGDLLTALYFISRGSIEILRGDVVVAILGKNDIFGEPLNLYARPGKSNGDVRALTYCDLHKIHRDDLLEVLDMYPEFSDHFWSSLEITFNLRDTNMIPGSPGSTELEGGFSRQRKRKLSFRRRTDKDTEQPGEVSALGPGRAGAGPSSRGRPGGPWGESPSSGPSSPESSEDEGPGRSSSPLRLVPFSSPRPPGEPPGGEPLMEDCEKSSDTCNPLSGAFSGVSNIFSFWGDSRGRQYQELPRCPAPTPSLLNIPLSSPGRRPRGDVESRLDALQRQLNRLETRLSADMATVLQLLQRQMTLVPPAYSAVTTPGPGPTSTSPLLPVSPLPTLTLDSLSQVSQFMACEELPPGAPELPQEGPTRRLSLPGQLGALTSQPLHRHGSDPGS

With `O=C(NCCc1c[nH]c2ccccc12)C1CCN(S(=O)(=O)c2ccccc2)CC1` as the compound, how does the “hERG current change (%, negative = inhibition) at 1uM” value read?
Its value is 7.42%.

Which “hERG current change (%, negative = inhibition) at 1uM” value does the source give for `Cc1ccc(S(=O)(=O)N2CCN(C(=O)Cc3c(F)cccc3Cl)CC2)cc1` here?
Its value is 17.5%.

With `CCCCC(=O)N1CCN(c2nc3ccc(OCC)cc3s2)CC1` as the compound, how does the “hERG current change (%, negative = inhibition) at 1uM” value read?
The value was -3.13%.

For `COC(=O)c1cn(NC(=O)c2ccccc2[N+](=O)[O-])c(=O)c2ccccc12`, which “hERG current change (%, negative = inhibition) at 1uM” value is on record?
The value was 6.56%.

With `Oc1c(C(c2cccc(F)c2)N2CCN(Cc3ccccc3)CC2)sc2ncnn12` (stereo not drawn) as the compound, how does the “hERG current change (%, negative = inhibition) at 1uM” value read?
The value was 1.38%.

`COc1ccccc1CNS(=O)(=O)c1ccc2c(c1)NC(=O)CO2` was tested. Which “hERG current change (%, negative = inhibition) at 1uM” value did it give?
Its value is 13.5%.

Which “hERG current change (%, negative = inhibition) at 1uM” value does the source give for `NNC(=O)CN1C(c2ccccc2Br)=Nc2ccc(Br)cc2C1c1ccccc1` (stereo not drawn) here?
Its value is 8.59%.

With `O=C(Cn1cnc2ccccc2c1=O)NC1CCCc2ccccc21` (stereo not drawn) as the compound, how does the “hERG current change (%, negative = inhibition) at 1uM” value read?
Its value is 13%.

How did the “hERG current change (%, negative = inhibition) at 1uM” value turn out when `Cc1ccc(CSCCNC(=O)c2ccc(N(C)S(=O)(=O)c3ccccc3)cc2)cc1` was run?
The value was -5.15%.

Which “hERG current change (%, negative = inhibition) at 1uM” value does the source give for `CC(=O)Cn1nnc2sc3c(c2c1=O)CCC(C(C)(C)C)C3` (stereo not drawn) here?
Its value is 6.65%.

With `O=C(CCS(=O)(=O)Cc1ccccc1)Nc1nc2c(s1)CCCC2` as the compound, how does the “hERG current change (%, negative = inhibition) at 1uM” value read?
Its value is 3.27%.

Which “hERG current change (%, negative = inhibition) at 1uM” value does the source give for `CSCC[C@H](NC(=O)OC(C)(C)C)C(=O)NCC1CCC(C(=O)O)CC1` (stereo partly drawn) here?
The value was 3.02%.

For `CC(C)(C)C(=O)N1CCC(O)(CS(=O)(=O)Cc2ccccc2Cl)CC1`, which “hERG current change (%, negative = inhibition) at 1uM” value is on record?
The value was -2.08%.

`Cc1cccc(NC(=S)NCc2cccs2)c1C` was tested. Which “hERG current change (%, negative = inhibition) at 1uM” value did it give?
Its value is -4.04%.

For `CCCOc1ccc(C2(C(=O)O)CCCC2)cc1`, which “hERG current change (%, negative = inhibition) at 1uM” value is on record?
The value was 8.31%.

`CCN(C(=O)C1CCCCC1)c1nnc(-c2cccnc2)s1.Cl` was tested. Which “hERG current change (%, negative = inhibition) at 1uM” value did it give?
Its value is 4.41%.

`COc1ccccc1O` was tested. Which “hERG current change (%, negative = inhibition) at 1uM” value did it give?
The value was 14.5%.

How did the “hERG current change (%, negative = inhibition) at 1uM” value turn out when `O=C(NCCc1ccccn1)c1cncc(Br)c1` was run?
Its value is 13%.

How did the “hERG current change (%, negative = inhibition) at 1uM” value turn out when `COC(CNc1ncnc2sc(-c3ccccc3)cc12)OC` was run?
Its value is 1.81%.

With `Cc1ccc(C)c(N=Nc2nc3ccccc3n2C)c1` as the compound, how does the “hERG current change (%, negative = inhibition) at 1uM” value read?
The value was 6.38%.

Which “hERG current change (%, negative = inhibition) at 1uM” value does the source give for `CCOc1ccccc1C(=O)OCC(=O)NCC1CCCCC1` here?
The value was 8.09%.

For `Cc1sc2nc(SCCN(C)C)n(-c3ccccc3)c(=O)c2c1-c1ccc(F)cc1`, which “hERG current change (%, negative = inhibition) at 1uM” value is on record?
The value was 17.9%.

Which “hERG current change (%, negative = inhibition) at 1uM” value does the source give for `CCOc1ccccc1CNS(=O)(=O)c1ccc2c(c1)oc(=O)n2C` here?
Its value is 9.66%.

Which “hERG current change (%, negative = inhibition) at 1uM” value does the source give for `COc1cc(C=Nc2cccc([N+](=O)[O-])c2C)ccc1OC(C)=O` here?
Its value is 16.2%.

With `CCN1CCN(CCCNC(=O)c2cc3c(=O)[nH]c4ccccc4c3s2)CC1` as the compound, how does the “hERG current change (%, negative = inhibition) at 1uM” value read?
Its value is 1.35%.

Which “hERG current change (%, negative = inhibition) at 1uM” value does the source give for `C[N+]1(C)CCC(OC(=O)C(c2ccccc2)c2ccccc2)CC1.[I-]` here?
Its value is 8.61%.

With `CCS(=O)(=O)NCc1ccc2[nH]c3c(c2c1)CCCC3` as the compound, how does the “hERG current change (%, negative = inhibition) at 1uM” value read?
The value was 12%.

How did the “hERG current change (%, negative = inhibition) at 1uM” value turn out when `COc1ccc(N(CC(=O)Nc2ccc(OC)c(OC)c2)S(=O)(=O)c2ccccc2)cc1Cl` was run?
The value was 10.4%.

Which “hERG current change (%, negative = inhibition) at 1uM” value does the source give for `COc1ccc(NC(=O)C2CCCN(S(C)(=O)=O)C2)cc1Cl` (stereo not drawn) here?
Its value is 14.8%.

For `O=C1CSC(c2ccc(F)cc2)N1c1c(F)cccc1F` (stereo not drawn), which “hERG current change (%, negative = inhibition) at 1uM” value is on record?
Its value is 10.7%.

`COC(=O)C(NC(=O)c1ccccc1C)(Nc1ncc(S(=O)(=O)c2ccc([N+](=O)[O-])cc2)s1)C(F)(F)F` (stereo not drawn) was tested. Which “hERG current change (%, negative = inhibition) at 1uM” value did it give?
The value was 2.23%.

`c1cc(C2N3CCCN2CC3)ccn1` (stereo not drawn) was tested. Which “hERG current change (%, negative = inhibition) at 1uM” value did it give?
The value was 15.9%.

How did the “hERG current change (%, negative = inhibition) at 1uM” value turn out when `O=C(N/N=C/c1ccsc1)c1c[nH]c2ccccc12` was run?
The value was -0.145%.

How did the “hERG current change (%, negative = inhibition) at 1uM” value turn out when `CCOCc1c(C(=O)Nc2ccc3nc(N4CCOCC4)sc3c2)oc2ccccc12` was run?
Its value is -12.2%.

`c1ccc(Nc2nc(CSc3ncn[nH]3)cs2)cc1` was tested. Which “hERG current change (%, negative = inhibition) at 1uM” value did it give?
Its value is 14.4%.

Which “hERG current change (%, negative = inhibition) at 1uM” value does the source give for `Cc1ccccc1OCC(=O)OCC(=O)Nc1ccc2c(c1)OCCO2` here?
Its value is 7.22%.

With `CCOC(=O)c1ccc(NC(=O)c2cc(C)nn2-c2ccccc2)cc1` as the compound, how does the “hERG current change (%, negative = inhibition) at 1uM” value read?
Its value is 9.05%.

`CCCc1nc(NC(C)=O)c(C#N)c(-c2ccco2)c1CC` was tested. Which “hERG current change (%, negative = inhibition) at 1uM” value did it give?
The value was 0.0807%.

For `O=C(CSc1nc(C2CC2)nc2ccccc12)N1c2ccccc2Sc2ccccc21`, which “hERG current change (%, negative = inhibition) at 1uM” value is on record?
Its value is 8.18%.

For `CC(C)(C)c1ccc(S(=O)(=O)NCc2ccc(C(=O)NCc3ccccn3)cc2)cc1`, which “hERG current change (%, negative = inhibition) at 1uM” value is on record?
The value was 0.641%.

For `Cc1c(NC(=O)COC(=O)C23CC4CC(CC(O)(C4)C2)C3)c(=O)n(-c2ccccc2)n1C`, which “hERG current change (%, negative = inhibition) at 1uM” value is on record?
The value was 7.24%.

Which “hERG current change (%, negative = inhibition) at 1uM” value does the source give for `CCCOn1nnnc1-c1ccccc1` here?
Its value is 13.6%.

With `COc1ccc(C(C)n2c(C)c3c(C)nnc(C)c3c2C)cc1` (stereo not drawn) as the compound, how does the “hERG current change (%, negative = inhibition) at 1uM” value read?
Its value is -52.3%.

`O=C(CSc1ccc(-c2nc3ccccc3[nH]2)cn1)Nc1ccc(S(=O)(=O)NC2CC2)cc1` was tested. Which “hERG current change (%, negative = inhibition) at 1uM” value did it give?
Its value is 5.89%.

Which “hERG current change (%, negative = inhibition) at 1uM” value does the source give for `CCOC(=O)C1CCN(C(=O)c2cccc(S(=O)(=O)N3c4ccccc4CC3C)c2)CC1` (stereo not drawn) here?
The value was -9.25%.

With `Cc1ccc(S(=O)(=O)NC(C)C(=O)OCC(=O)N(C)c2ccccc2)cc1` (stereo not drawn) as the compound, how does the “hERG current change (%, negative = inhibition) at 1uM” value read?
Its value is 12.6%.

With `Cc1sc2nc(SCC(=O)N(C)C)[nH]c(=O)c2c1C` as the compound, how does the “hERG current change (%, negative = inhibition) at 1uM” value read?
The value was 10.4%.

With `COc1cc(/C=C2\SC(=S)N(CCC(=O)Nc3ccccn3)C2=O)cc(OC)c1OC` as the compound, how does the “hERG current change (%, negative = inhibition) at 1uM” value read?
The value was 5.8%.

For `COc1cc(/C=N/NC(=O)c2ccc(N)cc2)ccc1OC(=O)c1cccc(C)c1`, which “hERG current change (%, negative = inhibition) at 1uM” value is on record?
Its value is 9.03%.

How did the “hERG current change (%, negative = inhibition) at 1uM” value turn out when `O=C(Nc1cccc(S(=O)(=O)N2CCCC2)c1)c1cccc(S(=O)(=O)N2CCOCC2)c1` was run?
Its value is 6.09%.

Which “hERG current change (%, negative = inhibition) at 1uM” value does the source give for `Cc1cccc(NC(=S)NC(=O)c2oc3ccccc3c2C)n1` here?
The value was 21%.

With `Cc1nc(NC2=NCN(CCCN3CCOCC3)CN2)nc2c(C)cccc12` as the compound, how does the “hERG current change (%, negative = inhibition) at 1uM” value read?
The value was 10.9%.

How did the “hERG current change (%, negative = inhibition) at 1uM” value turn out when `O=S(=O)(O)c1ccc(SCc2ccccc2)nc1` was run?
Its value is 13.1%.

Which “hERG current change (%, negative = inhibition) at 1uM” value does the source give for `O=C(O)Cn1cc(C(=S)N2CCCCC2)c2ccccc21` here?
The value was 10.2%.

`Cc1cc(C)cc(-n2nnc(C(=O)NCc3ccc4c(c3)OCO4)c2N)c1` was tested. Which “hERG current change (%, negative = inhibition) at 1uM” value did it give?
The value was -0.637%.

`Cc1ccc(N2CCN(C(=O)c3ccccc3NC(=O)c3ccccc3C(=O)O)CC2)cc1` was tested. Which “hERG current change (%, negative = inhibition) at 1uM” value did it give?
Its value is 0.204%.

`O=C(NCc1ccco1)c1ccc2[nH]c(=O)c(=O)[nH]c2c1` was tested. Which “hERG current change (%, negative = inhibition) at 1uM” value did it give?
Its value is 4.09%.
